Data taken from the antibiotic and cytotoxicity screens of Wong et al. (2023).
Some of the results follow.

Each molecule was assayed on S. aureus RN4220 (assay: growth inhibition call (relative growth <= 0.2)). Conditions: 50 µM.

| Compound | growth inhibition call |
| --- | --- |
| COc1ccc(NC(=O)N(C)C[C@H]2Oc3c(NS(=O)(=O)c4cn(C)cn4)cccc3C(=O)N([C@H](C)CO)C[C@@H]2C)cc1 | inactive |
| COc1ccc(S(=O)(=O)Nc2ccc3c(c2)C(=O)N([C@H](C)CO)C[C@H](C)[C@H](CN(C)S(=O)(=O)c2cccs2)O3)cc1 | inactive |
| CC1CCC2(C)C(C=O)=CCCC2C1(C)CC1OC(O)C(=O)C12CO2 (stereo unspecified) | active |
| COc1ccc(CN(C)C[C@H]2OCCCC[C@@H](C)Oc3ccc(NC(=O)NC4CCCCC4)cc3C(=O)N([C@@H](C)CO)C[C@H]2C)cc1 | inactive |
| COc1ccc(S(=O)(=O)Nc2ccc3c(c2)C(=O)N([C@H](C)CO)C[C@@H](C)[C@H](CN(C)S(=O)(=O)c2ccc(Cl)cc2)OCCCC[C@H](C)O3)cc1 | inactive |
| C[C@@H]1CN([C@@H](C)CO)S(=O)(=O)c2ccc(-c3ccc(C#N)cc3)cc2O[C@@H]1CN(C)C(=O)CN(C)C | inactive |
| CCOc1ccc(Cc2cc(C3OC(CO)C(O)C(O)C3O)ccc2Cl)cc1 (stereo unspecified) | inactive |
| COc1ccc(S(=O)(=O)N(C)C[C@H]2Oc3ccc(N(C)C)cc3C(=O)N([C@H](C)CO)C[C@H]2C)cc1 | inactive |
| C[C@H](CO)N1C[C@H](C)[C@@H](CN(C)S(=O)(=O)c2ccc(F)cc2)Oc2ccc(NC(=O)Nc3cccc4ccccc34)cc2C1=O | inactive |
| C[C@@H]1CN([C@@H](C)CO)C(=O)c2cccc(NC(=O)c3cnccn3)c2O[C@@H]1CN(C)C(=O)Nc1ccc(F)cc1 | inactive |
| O=C(C[C@@H]1CC[C@@H]2[C@H](COC[C@H](O)CN2S(=O)(=O)c2cccc(Cl)c2)O1)NCCCN1CCOCC1 | inactive |
